# Assay results: PubChem BioAssay AID488969 (Vanderbilt High Throughput Screening Facility, 2010)
# In all, about 110,000 compounds were measured (“z-score”: median about -0.1, highest 2% from about 2 on). This is one part of the list. The source made the active and inactive calls.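 The calls were made as follows: active = z-score in the third read window above 3 or below -3; inactive = the rest.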
# Molecular target: Metabotropic glutamate receptor 8 (Rattus norvegicus) (UniProt P70579)
# Assay: mGluR8 Gi/Go-coupled signaling modulation – cell-based, rat, thallium flux, HTS, primary screen (AID 488969)
# Conditions: HEK293 rat mGluR8, GIRK (G protein-gated inwardly rectifying potassium channel) thallium flux, FluoZin2; at 10 µM; stronger effect = higher value; submaximal glutamate (EC20) added with thallium
# Chain of UniProt P70579 (P70579 whole entry, looked up): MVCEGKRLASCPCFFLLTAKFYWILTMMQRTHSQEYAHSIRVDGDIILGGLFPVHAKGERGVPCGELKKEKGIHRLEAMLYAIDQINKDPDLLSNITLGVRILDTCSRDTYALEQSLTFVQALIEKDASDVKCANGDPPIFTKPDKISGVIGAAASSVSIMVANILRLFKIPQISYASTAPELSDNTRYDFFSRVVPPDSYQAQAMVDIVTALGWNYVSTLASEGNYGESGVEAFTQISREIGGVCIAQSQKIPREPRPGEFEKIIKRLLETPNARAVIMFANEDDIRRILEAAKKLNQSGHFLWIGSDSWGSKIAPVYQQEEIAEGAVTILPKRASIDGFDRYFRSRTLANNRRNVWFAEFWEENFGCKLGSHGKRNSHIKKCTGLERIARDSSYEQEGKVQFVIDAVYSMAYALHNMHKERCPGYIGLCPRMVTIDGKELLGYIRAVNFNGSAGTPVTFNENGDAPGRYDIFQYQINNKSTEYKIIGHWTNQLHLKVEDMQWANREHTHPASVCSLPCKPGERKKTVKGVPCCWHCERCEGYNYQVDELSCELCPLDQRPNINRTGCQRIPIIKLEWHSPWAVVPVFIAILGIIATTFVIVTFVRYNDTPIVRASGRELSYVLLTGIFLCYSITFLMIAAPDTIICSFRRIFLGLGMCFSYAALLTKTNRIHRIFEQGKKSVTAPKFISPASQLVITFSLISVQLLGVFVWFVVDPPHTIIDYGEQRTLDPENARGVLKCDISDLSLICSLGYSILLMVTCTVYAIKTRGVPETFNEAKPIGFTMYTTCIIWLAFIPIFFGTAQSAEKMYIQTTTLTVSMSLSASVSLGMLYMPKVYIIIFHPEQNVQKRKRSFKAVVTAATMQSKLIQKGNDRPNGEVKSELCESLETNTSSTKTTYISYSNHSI
row,Compound,z-score
1,COC(=O)c1cccc(N(C(=O)c2cnccn2)C(C(=O)NC2CCCCC2)c2cn(C)nc2C)c1 (stereo unspecified),-0.0869
2,C/C(=N\NC(=O)c1ccncc1)C12CC3CC(CC(C3)C1)C2,-0.319
3,Cc1c(NC(=O)c2cc(-n3cnnc3)ccc2Cl)cccc1-c1nc2ccccc2o1,-0.115
4,Cc1occc1-c1nc(-c2ccncc2)no1,0.281
5,COc1ccc(N(CC(=O)NN=C2CCCC2)S(=O)(=O)c2ccccc2)cc1,-0.177
6,Cc1nc(Cl)c(C(=O)NCCC(C)C)c(C)c1[N+](=O)[O-],-0.105
7,O=C(C1CCN(S(=O)(=O)c2cccnc2)CC1)N1CCCCC1,0.487
8,Cc1c(C(N)=O)sc2ncn(CC(=O)OC(C)C)c(=O)c12,0.619
9,Cn1c(=O)c(-c2ccccc2)nc2ccccc21,-0.27
10,COC(=O)CSc1nc(N)c(NC(=O)c2ccc(OC)c(OC)c2)c(=O)[nH]1,0.0346
11,O=C(O)c1ccccc1NS(=O)(=O)c1ccccc1C(F)(F)F,-2.23
12,O=C(CSc1nnc(Cc2cccs2)n1Cc1ccco1)Nc1ccc(Br)cc1,-0.431
13,COC(=O)c1ccccc1NC(=O)NCc1ccc2c(c1)OCO2,-0.588
14,O=C(Nc1ccc2c(c1)CCC2)c1cccc(F)c1,-0.533
15,O=C(NCC1CCCO1)c1onc(CSc2ccccc2)c1C(=O)O (stereo unspecified),-0.2
16,COc1ccccc1CCNC(=O)/C(=C/c1cccnc1)NC(=O)c1ccccc1,0.407
17,C=CCn1c(=O)c2ccccc2n2c(SCC(=O)Nc3sc(C)c(CC)c3C(=O)OCC)nnc12,-0.851
18,CC1=NN(c2ccc(C)c(C)c2)C(=O)/C1=C/c1ccc2c(c1)n(C)c(=O)n2C,0.144
19,CCOC(=O)c1c(C)nn(Cc2ccccc2)c1N,-0.611
20,COc1c(F)c(F)c(C(=O)Nc2cccc(Cl)c2N2CCOCC2)c(F)c1F,0.0118
21,CCc1nc(OCc2ccco2)c2sc3nc4c(cc3c2n1)COC(C)(C)C4,-0.916
22,Cc1ccc(NS(=O)(=O)c2ccc(NC(=O)[C@@H]3CCCC[C@@H]3C(=O)O)cc2)c(C)c1,0.0653
23,O=C(CSc1nc2c(cnn2-c2ccc(F)cc2)c(=O)[nH]1)N1CCCCCC1,0.587

row,Compound,z-score
1,Cc1ccc(S(=O)(=O)N(C)C)cc1NS(=O)(=O)c1ccc(Cl)s1,-1.55
2,C=CCNC(=O)c1c(Cl)nc(C)c([N+](=O)[O-])c1C,-0.112
3,C=CCOc1ccc(/C(O)=C2/C(=O)C(=O)N(CCN3CCOCC3)C2c2ccc(C)cc2)cc1 (stereo unspecified),-0.208
4,Cc1cccc(OCc2nnc(N)s2)c1C,-0.275
5,Cc1ccc(C(=O)N/C(=C\c2cccnc2)c2nc3ccccc3[nH]2)cc1,-0.117
6,c1ccc(CNc2ncnc3c2cnn3-c2ccccc2)cc1,-0.0703
7,COc1ccc(/C=N/Nc2nc(=O)[nH]nc2C)cc1[N+](=O)[O-],-0.356
8,CCCCN(CC)C(=O)c1ccccc1Oc1ccccc1,-0.648
9,Cc1cccc(NC(=O)C2CCN(S(=O)(=O)c3cccc4cccnc34)CC2)n1,0.642
10,COc1ccccc1S(=O)(=O)Cc1ccc(C(=O)N2CCN(c3cccc(Cl)c3)CC2)o1,-0.158
11,Cc1ccc2c(c1)sc[n+]2Cc1ccccc1,0.0925
12,O=[N+]([O-])c1cc(C(F)(F)F)ccc1Sc1ccccn1,-0.191
13,OC(CNC1CCCc2ccccc21)COc1c(Cl)cccc1Cl (stereo unspecified),1.97
14,C=CCSc1nnc(NC(=O)CSc2ccccn2)s1,-0.421
15,Cc1ccc(S(=O)(=O)N2CCCCC2)cc1NC(=O)COC(=O)C1CC2C=CC1C2 (stereo unspecified),2.38
16,O=S(=O)(NC1CC2CCC1C2)c1ccc(Br)s1 (stereo unspecified),0.869
17,O=C(Oc1nsnc1N1CCOCC1)N1CCOCC1,0.156
18,O=C(CCC(=O)Nc1nnc(C2CCCCC2)s1)NCC1CCCO1 (stereo unspecified),0.0959
19,CCOc1cc(CNc2ccccc2SC)ccc1O,0.763
20,N#CC1=C2Nc3ccccc3N2C(=O)NC1(c1ccccc1)C(F)(F)F (stereo unspecified),0.00994
21,CC(C)(C)C(=O)C(Oc1cccc2nonc12)n1cncn1 (stereo unspecified),-0.0119
22,Cc1cc(NS(=O)(=O)c2ccc(Nc3nc(-c4sc(NC(=O)c5ccccc5)nc4C)cs3)cc2)no1,-0.843
23,CCCCNC(=O)COC(=O)c1ccc(NS(=O)(=O)c2ccc3c(c2)OCCO3)cc1,-0.0527

row,Compound,z-score
1,COc1ccccc1Oc1ccc2c(c1)C(=O)N(c1ccccc1)C2=O,0.472
2,CC(=O)c1c(C)[nH]c(C(=O)CSc2nnc(CN3CCCCCC3=O)n2-c2ccccn2)c1C,-0.0799
3,Cc1nnc2n(-c3ccccc3)c(=O)c3c4c(sc3n12)CC(C)CC4 (stereo unspecified),-1.3
4,O=C(NC12CC3CC(CC(C3)C1)C2)C1CC(=O)N(c2ccccc2)C1 (stereo unspecified),-0.0926
5,O=C1C(Cc2ccccc2)S/C(=N/N=C/c2ccco2)N1c1ccccc1 (stereo unspecified),-0.0921
6,Brc1ccc(CN2CCN(c3ccccn3)CC2)s1,-0.141
7,CC(C)[C@H](NS(=O)(=O)c1ccccc1)C(=O)OCC(=O)Nc1ccc2c(c1)OCO2,-0.334
8,Cc1ccc(OCCCOc2cccc3cccnc23)cc1C,0.00993
9,CCn1c(SCC(=O)Nc2sc3c(c2C#N)CCCC3)nnc1-c1ccncc1,-0.633
10,O/N=C1/CCCCC1c1ccccn1 (stereo unspecified),0.238
11,CCNS(=O)(=O)c1ccc(S(=O)(=O)N(Cc2ccccn2)C2CCCCC2)cc1,-0.174
12,CCn1ccc(C(=O)Oc2ccc(C(C)C)cc2)n1,0.321
13,CCN(CC)CCNC(=O)c1c(C)oc2cc(Br)c(OC)cc12,-0.44
14,CN(C)S(=O)(=O)c1ccc(-c2ccccc2)cc1,-1.4
15,CCOc1ccc(C(=O)CN2CCN(S(=O)(=O)c3ccc(OC)cc3)CC2)cc1,-0.414
16,O=C(CCCN1C(=O)c2ccccc2C1=O)NCCN1C(=O)S/C(=C\c2cccs2)C1=O,0.331
17,CCCOc1cccc(C(=O)N(Cc2cccs2)C2CCS(=O)(=O)C2)c1 (stereo unspecified),-0.815
18,CCOC(=O)c1ccc(N2C(=O)CC(N3CCC(C(N)=O)(N4CCCCC4)CC3)C2=O)cc1 (stereo unspecified),-0.0206
19,CS(=O)(=O)N(CC(=O)Nc1cccc(Cl)c1)c1ccccc1Cl,-0.0609
20,Cc1cccc(N2CCN(C(=O)c3ccncc3)CC2)c1C,-0.0566
21,O=C(CSc1nc2ccccc2o1)Nc1ccccc1,0.0178
22,C/C(=N\NC(=O)CSCc1ccc(Cl)cc1)c1ccc(NC(=O)c2ccccc2)cc1,-0.128
23,O=C(N/N=C/c1ccc(Cl)cc1Cl)c1n[nH]c2c1CCCC2,-0.138

row,Compound,z-score
1,O=C(N1CCOCC1)N1CCN(c2ccccc2)CC1,-0.483
2,Cc1ccc(-n2cc3ccc([N+](=O)[O-])cc3n2)cc1,-0.0518
3,c1ccc(CCc2nn3c(C4COc5ccccc5O4)nnc3s2)cc1 (stereo unspecified),-0.73
4,O=C1COc2ccc(NC(=O)N3CCN(c4ccc(F)cc4)CC3)cc2N1,-0.094
5,O=C1C(c2ccc(F)cc2)N(Cc2ccc3c(c2)OCO3)C(=O)CN1C1CCCCCC1 (stereo unspecified),-0.227
6,COC(=O)CNc1ccc2c(c1)OCO2,-0.231
7,Cc1cccc2c1[nH]c1nc(N/N=C\c3ccco3)nnc12,-0.0756
8,O=C(O)c1cnc(-c2ccccc2)nc1Sc1ccc(Cl)cc1,-0.259
9,O=C(/C(=C/O)N=Nc1ccc(Cl)cc1)c1ccncc1,-0.168
10,COc1ccc(-c2n[nH]c(C)c2-c2cc(OC)ccc2O)cc1,-0.00408
11,S=c1[nH]nc(-c2ccc3ccccc3n2)n1Cc1ccccc1,0.834
12,Cc1c(Cl)cccc1NC(=S)NNc1ncc(C(F)(F)F)cc1Cl,0.506
13,Nc1nc(SCC(=O)NCc2ccccc2)n[nH]1,0.225
14,O=c1c2cc(Br)ccc2nc(-c2cccc(C(F)(F)F)c2)n1O,active: 10.5
15,Cc1ccc(-c2nc3ncccn3c2NC2CCCCC2)o1,-0.306
16,CCNC(=S)N(Cc1c(C)noc1C)c1ccccc1,0.173
17,Cn1c(SCc2ccccc2)nnc1-c1ccc2c(c1)OCO2,-0.0264
18,Cc1ccc(S(=O)(=O)N2C(=O)CCC2C(=O)N2CCN(C)CC2)cc1 (stereo unspecified),-0.203
19,CCOC(=O)c1c(NC(=O)/C=C/c2ccco2)sc(C)c1C,0.569
20,COc1cccc(CNc2ccc(N3CCCCC3)cc2)c1OC,-0.157
21,CCc1ccccc1OCCCOc1ccc(OC)cc1,-0.0124
22,COc1cc(NC(=O)Cn2ncc3c2-c2ccccc2OC3)cc(OC)c1OC,-0.0375
23,Cc1ccccc1CN(c1ccc(C(=O)Nc2cccnc2)cc1)S(C)(=O)=O,-0.532

row,Compound,z-score
1,Cc1ccc(C)c(S(=O)(=O)ON2C(=O)c3ccccc3C2=O)c1,0.0644
2,Cc1cc(NS(=O)(=O)c2ccc(NC(=O)c3ccco3)cc2)nc(C)n1,0.236
3,COc1ccc(C(CC(=O)NC(C)(C)C)n2cccc2)cc1 (stereo unspecified),-0.373
4,COc1ccc(S(=O)(=O)N(n2c(C)nnc2-n2nc(C)cc2C)S(=O)(=O)c2ccc(OC)cc2)cc1,0.354
5,CC(C)(C)N1CC(c2nc3ccccc3n2CCOc2ccccc2)CC1=O (stereo unspecified),-0.595
6,COc1ccc(C2N(c3ccc(OC)cc3)C(=S)N3CCCN23)cc1 (stereo unspecified),0.0146
7,COc1cc(NC(=O)CSc2nc3ccccc3cc2C)c(C(=O)O)cc1OC,-0.123
8,Cc1nc(-c2ccccc2)cs1,-0.227
9,COc1c(S(=O)(=O)n2nc(C)cc2C)ccc(Cl)c1Cl,-0.668
10,COc1cc(C)ccc1OCCCOc1ccccc1Br,-0.0417
11,O=C(c1ccco1)N1CCN(c2ccccc2F)CC1,0.221
12,CCc1nnc(NC(=O)CSc2nnc(-c3ccco3)n2CC)s1,-1.25
13,Cc1nnc(SCCC(=O)Nc2nc(-c3ccccc3)ns2)s1,0.204
14,CNC(=S)N(Cc1cccs1)Cc1cc2cc(OC)c(OC)cc2[nH]c1=O,0.0596
15,COC(=O)C(C)Sc1nnc(Cc2cc(=O)[nH]c(=O)[nH]2)n1-c1ccc(OC)cc1 (stereo unspecified),0.194
16,O=C(Nc1ccc2oc(-c3ccncc3)nc2c1)c1c(F)c(F)c(F)c(F)c1F,active: 3.39
17,O=C(CC1c2ccccc2Oc2ccccc21)Nc1ccccc1F,0.0431
18,CCS(=O)(=O)N1CCC(C(=O)NCc2ccccc2OC)CC1,-0.025
19,CNC(=O)OC(C)CNS(=O)(=O)c1ccc(C)cc1 (stereo unspecified),0.0108
